Values marked as one replicate rest on one cluster of the flow cell; about a third of the high ones do not repeat.
Tested on: ATP
Assay: switch fluorescence ratio, 500 uM ATP over buffer (Cy3 cluster intensity, sum of 5 cycles each) (fold (ratio)); higher = stronger signal-on switching upon ATP binding; sequences stand for … in TCGTCGGCAGCGTCAGATGTGTATAAGAGACAGTTTTTTTTTTTTTTTTTTTTTTTTT…TC
Conditions: aptamer strand: ATP DNA aptamer (quencher-CACCTGGGGGAGTATTGCGGAGGAAGG + anchor), 100 nM annealed; ATP concentration: 500 uM; one replicate
How it was run: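 Per cluster, summed Cy3 intensity from the target cycles was divided by that from the buffer cycles to give the fluorescence ratio, then averaged per switch-domain sequence. Clusters outside 100-1000 RFU were excluded. The Cy3-labelled switching-strand clusters, on a modified Illumina MiSeq flow-cell, were annealed to 100 nM quencher-labelled ATP aptamer and imaged in selection buffer, then after 15 min with 500 uM ATP at 22 °C, for five cycles with NaOH stripping and re-annealing between them.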
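Also: ATP exposure 15 min at 22 °C before imaging.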

CGTTTCAAG
switch fluorescence ratio: 1.02

CGCCGTCGGC
switch fluorescence ratio: 1.05

CAGACAAACG
switch fluorescence ratio: 1.08

GAACGGGCGG
switch fluorescence ratio: 0.991

ATCGCAACGG
switch fluorescence ratio: 1.16

CGCATATTTC
switch fluorescence ratio: 1.51

TGTGATTGTC
switch fluorescence ratio: 1.04

TATGGTTTTA
switch fluorescence ratio: 0.982

GAACGTATCC
switch fluorescence ratio: 1.11

GGCGTCCTAC
switch fluorescence ratio: 0.998

CAAGAACGAT
switch fluorescence ratio: 1

AGAGGTCTAA
switch fluorescence ratio: 0.965

ACGATGTATA
switch fluorescence ratio: 0.979

CGCCTAAATG
switch fluorescence ratio: 0.971

TAGAGAGTGT
switch fluorescence ratio: 0.985

ACAATCCGAG
switch fluorescence ratio: 1.09

TCTTGGCATT
switch fluorescence ratio: 1.04

GTTAATATTA
switch fluorescence ratio: 1.02

AGACCCACAG
switch fluorescence ratio: 1.04

AGGAGAAAAC
switch fluorescence ratio: 0.976

ATTGTACCGA
switch fluorescence ratio: 1.04

CTAGGACAGT
switch fluorescence ratio: 1.03

GTTCTCTCCG
switch fluorescence ratio: 1.18

ATAGCAGGCA
switch fluorescence ratio: 1.02

TATAATTTGG
switch fluorescence ratio: 0.966

GCCTGAG
switch fluorescence ratio: 1.13

CACGCAGAAA
switch fluorescence ratio: 1.15

CTGAGAGAAG
switch fluorescence ratio: 0.971

GTAATAAGTC
switch fluorescence ratio: 1.06

GCATAGGTCT
switch fluorescence ratio: 0.998

GGCTGATTTT
switch fluorescence ratio: 1.01

AACATCATG
switch fluorescence ratio: 1

CCATATTTTC
switch fluorescence ratio: 1.02

TTATCCTCGG
switch fluorescence ratio: 1.01

GGGCGATTTT
switch fluorescence ratio: 1.08

GACTTCTTCA
switch fluorescence ratio: 1.04

GAGCCTTTCG
switch fluorescence ratio: 1.32

AGTCTGTATC
switch fluorescence ratio: 0.989

CGTCAATGAG
switch fluorescence ratio: 1.04

TATGCGATCA
switch fluorescence ratio: 1.04

CGCGTGGTTC
switch fluorescence ratio: 1.03

CAGGGCTAAT
switch fluorescence ratio: 0.996

TCGCCGATTT
switch fluorescence ratio: 1.08

TGAGGGCTG
switch fluorescence ratio: 1.02

CCAACTTAAC
switch fluorescence ratio: 1.09

ATGTGGCATC
switch fluorescence ratio: 0.996

ACAGGTCGGA
switch fluorescence ratio: 1.03

TTTCGAGGCC
switch fluorescence ratio: 1.1

ATGATCCGC
switch fluorescence ratio: 1.7

TACGAAGAGG
switch fluorescence ratio: 1.03

GCTAACGCTG
switch fluorescence ratio: 1.07

AACACTAGTC
switch fluorescence ratio: 1.03

GCCTAAGATC
switch fluorescence ratio: 1.03

ATTCCCGGCG
switch fluorescence ratio: 1.07

CGTGGGGAG
switch fluorescence ratio: 0.999

TTCTCATGAG
switch fluorescence ratio: 1

GATTTTTTAA
switch fluorescence ratio: 0.99

ATCCTTCTAG
switch fluorescence ratio: 1.03

GACAGGGGGC
switch fluorescence ratio: 1.04

ATTTTAGTT
switch fluorescence ratio: 0.988

ATTACAGCTA
switch fluorescence ratio: 1.15

TCTAGCGGTT
switch fluorescence ratio: 0.985

ACTCTTGTGT
switch fluorescence ratio: 0.993

AGCGCTGGGG
switch fluorescence ratio: 0.994

GAGCTTAAAA
switch fluorescence ratio: 1.06

ATAGTAGCTG
switch fluorescence ratio: 0.996

CAGGGGCGA
switch fluorescence ratio: 1.72

TGGTCTAAGA
switch fluorescence ratio: 1

TCAAGAAGCA
switch fluorescence ratio: 1.01

ACGTGTTAAG
switch fluorescence ratio: 1.09

TCTATGTAC
switch fluorescence ratio: 1.14

TAAATTTCAC
switch fluorescence ratio: 1.02

CGAAATAT
switch fluorescence ratio: 4.27

GAATCTATAT
switch fluorescence ratio: 0.98

TAAAAGGTA
switch fluorescence ratio: 1.03

GCGGAGGGTT
switch fluorescence ratio: 1.07

AATGCCATGG
switch fluorescence ratio: 1.03

GCCCGTTGTA
switch fluorescence ratio: 1.03

CAGTAAGGGT
switch fluorescence ratio: 1.03

GCGGAAGTAA
switch fluorescence ratio: 1.02

ATTCCGATAC
switch fluorescence ratio: 4.44

GGTCAAACGT
switch fluorescence ratio: 0.993

GCGCGAACAG
switch fluorescence ratio: 1.02

ACGTTCATC
switch fluorescence ratio: 1.06

TCGTGCTTCA
switch fluorescence ratio: 1.04

TCGGGCGCTA
switch fluorescence ratio: 1.02

TTCACTCAAA
switch fluorescence ratio: 1.33

GTTTATGAGT
switch fluorescence ratio: 1

GCCTGGTAGA
switch fluorescence ratio: 0.996

TCGGCTTTAT
switch fluorescence ratio: 1.02

TGGATGCTTT
switch fluorescence ratio: 0.976

CAAGTCGGGA
switch fluorescence ratio: 1.01

CCTCTATCT
switch fluorescence ratio: 1.1

AACGTATATG
switch fluorescence ratio: 1.06

CTGCCCAGGA
switch fluorescence ratio: 1.39

GGTGGGTTCT
switch fluorescence ratio: 1.14

CGTGTACGG
switch fluorescence ratio: 1

GCGTTATTCG
switch fluorescence ratio: 1

CCTGACCGTG
switch fluorescence ratio: 1.01

CTTCCCGAGA
switch fluorescence ratio: 1.13

CTTTAAATGC
switch fluorescence ratio: 1.46

TGTTTGCGTC
switch fluorescence ratio: 0.98

TACCCATAGC
switch fluorescence ratio: 1.11

TGGGCCACTA
switch fluorescence ratio: 0.996

TGGTCCGTAC
switch fluorescence ratio: 1.15

GCGAGAAAAA
switch fluorescence ratio: 0.932

TTTGACTCAT
switch fluorescence ratio: 1.01

GCGTTAGTTC
switch fluorescence ratio: 0.999

TCCCCTGGCA
switch fluorescence ratio: 0.999

TTACAATC
switch fluorescence ratio: 1.03

CGAGCGGCCG
switch fluorescence ratio: 1.05

TGCTATGACT
switch fluorescence ratio: 0.954

ATAAGACGT
switch fluorescence ratio: 0.978

GGCTATCAGA
switch fluorescence ratio: 0.955

AAGTATCGGC
switch fluorescence ratio: 0.984

TCTCGACCAG
switch fluorescence ratio: 1.1

CTCGGTGCCA
switch fluorescence ratio: 0.965

TTTGAGTCCT
switch fluorescence ratio: 1.03

GCATTCCGAG
switch fluorescence ratio: 2.1

TGTCTGGGTG
switch fluorescence ratio: 1.16

CTTATAAAAA
switch fluorescence ratio: 1.02

CGCTACGAGG
switch fluorescence ratio: 1.15

CCCATTGGAC
switch fluorescence ratio: 1.02

TACCACATAT
switch fluorescence ratio: 1.08

CGGTATTTGT
switch fluorescence ratio: 0.958

AGGTCACCGG
switch fluorescence ratio: 1.03

CGTGAGTCTG
switch fluorescence ratio: 1.01

TGGCTATTAT
switch fluorescence ratio: 0.978

AGGGTCATGA
switch fluorescence ratio: 1.08

TAGTCGGAGG
switch fluorescence ratio: 1.06

GCAAGAGTGT
switch fluorescence ratio: 1.02

CGGTTGGAGT
switch fluorescence ratio: 1.03

CAATCTGCCA
switch fluorescence ratio: 1.05

TTAATAGCTC
switch fluorescence ratio: 0.975

TTACTCAATC
switch fluorescence ratio: 1.08

CGCGATAGAA
switch fluorescence ratio: 1.01

ACTCATTATC
switch fluorescence ratio: 1.01

TTGACTCGTT
switch fluorescence ratio: 1.02

TCATGTTGAG
switch fluorescence ratio: 0.98

TCAGAACTAT
switch fluorescence ratio: 0.991

ATGTACTATG
switch fluorescence ratio: 1.06

TTCTCCAATT
switch fluorescence ratio: 1.06

GGGTGGAGCC
switch fluorescence ratio: 1.02

TTTTCTATAG
switch fluorescence ratio: 1.03

CTGATTGAGA
switch fluorescence ratio: 0.991

ATGTTGTGAG
switch fluorescence ratio: 0.957

TGGGCTATTA
switch fluorescence ratio: 1.04

TTTGGAATTC
switch fluorescence ratio: 1.01

AGTAGCCTGG
switch fluorescence ratio: 1.03

ACGCAGGGA
switch fluorescence ratio: 1.02

GGGAATTGCG
switch fluorescence ratio: 1.01

TTGAATTTCC
switch fluorescence ratio: 1.33

CTGGAGTGAC
switch fluorescence ratio: 2.28

ATTTATTCTC
switch fluorescence ratio: 1.03

ACCAGTGTGC
switch fluorescence ratio: 1.69

ACCGTTCTCG
switch fluorescence ratio: 1.06

CAGGCTGGGT
switch fluorescence ratio: 0.969

From the supplement of paper PMC10126150
